In the supplement of paper PMC4967469:
By IC50 is meant the dose at which the fit gives 50% viability; fits outside the tested doses are given as limits. AUC sums up the same curve from the lowest dose to the 256-fold higher top dose; the more sensitive the line, the further below 1. An entry number marks a drug with two screens in the source, which often give different values.

compound: CS(=O)(=O)N1CCN(Cc2cc3nc(-c4cccc5[nH]ncc45)nc(N4CCOCC4)c3s2)CC1 [GDC0941]; test: Viability of human cancer cell lines after 72 h of drug (GDSC screen); conditions: screen: GDSC drug entry 1058
Procedure: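 Human cancer cell lines in 384-well plates, medium with 10% serum, drug for 72 h over a 256-fold dose range (nine 2-fold or five 4-fold steps up to the top dose). Adherent lines were fixed and stained with the nucleic acid dye Syto60, suspension lines read with resazurin; signal relative to control wells, capped at 0 and 100%. One two-parameter sigmoid per drug and line, fitted in a mixed model over all curves with the slope shared within a line.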

In order of falling AUC:
1. A3-KAW (B-cell lymphoma, suspension, top dose 4 µM)  0.993
2. ARH-77 (myeloma, suspension, top dose 4 µM)  0.987
3. A673 (rhabdomyosarcoma, adherent, top dose 4 µM)  0.982
4. BC-1 (B-cell lymphoma, suspension, top dose 4 µM)  0.98
5. A253 (head and neck, adherent, top dose 4 µM)  0.975
6. BCPAP (thyroid, adherent, top dose 2 µM)  0.975
7. AM-38 (glioma, semi-adherent, top dose 4 µM)  0.925
8. 451Lu (melanoma, adherent, top dose 4 µM)  0.923
9. BE2-M17 (neuroblastoma, adherent, top dose 4 µM)  0.919
10. 8505C (thyroid, adherent, top dose 4 µM)  0.908
11. BALL-1 (B-cell leukaemia, suspension, top dose 4 µM)  0.883
12. 8-MG-BA (glioma, adherent, top dose 4 µM)  0.879
13. BHY (head and neck, adherent, top dose 2 µM)  0.872
14. BE-13 (lymphoblastic leukaemia, suspension, top dose 4 µM)  0.857
15. 647-V (bladder, adherent, top dose 4 µM)  0.856
16. 786-0 (kidney, adherent, top dose 4 µM)  0.845
17. A2780 (ovary, semi-adherent, top dose 4 µM)  0.844
18. AsPC-1 (pancreas, adherent, top dose 2 µM)  0.837
19. 5637 (bladder, adherent, top dose 4 µM)  0.835
20. 8305C (thyroid, adherent, top dose 4 µM)  0.822
21. A431 (skin, adherent, top dose 4 µM)  0.794
22. 22RV1 (prostate, adherent, top dose 4 µM)  0.757
23. A704 (kidney, adherent, top dose 4 µM)  0.755
24. ASH-3 (thyroid, adherent, top dose 4 µM)  0.755
25. 42-MG-BA (glioma, adherent, top dose 4 µM)  0.746
26. ALL-SIL (T-cell leukaemia, suspension, top dose 4 µM)  0.746
27. BB49-HNC (head and neck, adherent, top dose 4 µM)  0.734
28. BFTC-905 (bladder, adherent, top dose 4 µM)  0.733
29. A498 (kidney, adherent, top dose 4 µM)  0.709
30. 23132-87 (stomach, adherent, top dose 4 µM)  0.672
31. A101D (melanoma, adherent, top dose 4 µM)  0.671
32. 201T (lung adenocarcinoma, adherent, top dose 4 µM)  0.666
33. AU565 (breast, adherent, top dose 4 µM)  0.663
34. 639-V (bladder, adherent, top dose 4 µM)  0.651
35. A388 (skin, adherent, top dose 4 µM)  0.633
36. BB30-HNC (head and neck, adherent, top dose 4 µM)  0.633
37. AGS (stomach, adherent, top dose 4 µM)  0.627
38. BHT-101 (thyroid, adherent, top dose 4 µM)  0.611
39. ALL-PO (lymphoblastic leukaemia, suspension, top dose 4 µM)  0.513
40. A4-Fuk (B-cell lymphoma, suspension, top dose 4 µM)  0.51
41. ATN-1 (T-cell lymphoblastic leukaemia, suspension, top dose 4 µM)  0.489
42. 697 (lymphoblastic leukaemia, suspension, top dose 4 µM)  0.399

Compared with “8-MG-BA (glioma, adherent, top dose 4 µM)”, “22RV1 (prostate, adherent, top dose 4 µM)” is 2.2-fold lower in IC50: 3650 nM for the first, 1690 nM for the second.

Going from “42-MG-BA (glioma, adherent, top dose 4 µM)” to “201T (lung adenocarcinoma, adherent, top dose 4 µM)”, the IC50 falls from 1340 nM to 819 nM (1.6-fold).

Going from “451Lu (melanoma, adherent, top dose 4 µM)” to “639-V (bladder, adherent, top dose 4 µM)”, the IC50 falls from greater than 4000 nM to 610 nM.

First: 647-V (bladder, adherent, top dose 4 µM)
Second: 697 (lymphoblastic leukaemia, suspension, top dose 4 µM)
The IC50 of the first is 23-fold higher: 3260 nM for the first, 140 nM for the second.

786-0 (kidney, adherent, top dose 4 µM) and 5637 (bladder, adherent, top dose 4 µM) are within 1.5-fold of each other in IC50: 2540 nM for the first, 2280 nM for the second.

Compared with “8305C (thyroid, adherent, top dose 4 µM)”, “8505C (thyroid, adherent, top dose 4 µM)” is higher in IC50: 3340 nM for the first, greater than 4000 nM for the second.

Going from “23132-87 (stomach, adherent, top dose 4 µM)” to “A3-KAW (B-cell lymphoma, suspension, top dose 4 µM)”, the IC50 rises from 766 nM to greater than 4000 nM.

First: A4-Fuk (B-cell lymphoma, suspension, top dose 4 µM)
Second: A101D (melanoma, adherent, top dose 4 µM)
The IC50 of the first is 3.2-fold lower: 266 nM for the first, 842 nM for the second.

Going from “A253 (head and neck, adherent, top dose 4 µM)” to A388 (skin, adherent, top dose 4 µM), the IC50 falls from greater than 4000 nM to 616 nM.

A431 (skin, adherent, top dose 4 µM) and A498 (kidney, adherent, top dose 4 µM) are within 1.5-fold of each other in IC50: 1750 nM for the first, 1330 nM for the second.

First: A673 (rhabdomyosarcoma, adherent, top dose 4 µM)
Second: A704 (kidney, adherent, top dose 4 µM)
The IC50 of the first is higher: greater than 4000 nM for the first, 1320 nM for the second.

First: A2780 (ovary, semi-adherent, top dose 4 µM)
Second: AGS (stomach, adherent, top dose 4 µM)
The IC50 of the first is 5.6-fold higher: 3000 nM for the first, 538 nM for the second.

First: ALL-PO (lymphoblastic leukaemia, suspension, top dose 4 µM)
Second: ALL-SIL (T-cell leukaemia, suspension, top dose 4 µM)
The IC50 of the first is 4.1-fold lower: 272 nM for the first, 1120 nM for the second.

“AM-38 (glioma, semi-adherent, top dose 4 µM)” and “ARH-77 (myeloma, suspension, top dose 4 µM)” cannot be ordered by IC50: greater than 4000 nM for the first, greater than 4000 nM for the second.

Compared with “ASH-3 (thyroid, adherent, top dose 4 µM)”, “ATN-1 (T-cell lymphoblastic leukaemia, suspension, top dose 4 µM)” is 5.8-fold lower in IC50: 1360 nM for the first, 234 nM for the second.

Going from AU565 (breast, adherent, top dose 4 µM) to “AsPC-1 (pancreas, adherent, top dose 2 µM)”, the IC50 rises from 753 nM to greater than 2000 nM.

First: BALL-1 (B-cell leukaemia, suspension, top dose 4 µM)
Second: BB30-HNC (head and neck, adherent, top dose 4 µM)
The IC50 of the first is 4-fold higher: 2320 nM for the first, 576 nM for the second.

Going from “BB49-HNC (head and neck, adherent, top dose 4 µM)” to “BC-1 (B-cell lymphoma, suspension, top dose 4 µM)”, the IC50 rises from 1560 nM to greater than 4000 nM.

“BCPAP (thyroid, adherent, top dose 2 µM)” and “BE2-M17 (neuroblastoma, adherent, top dose 4 µM)” cannot be ordered by IC50: greater than 2000 nM for the first, greater than 4000 nM for the second.

First: BE-13 (lymphoblastic leukaemia, suspension, top dose 4 µM)
Second: BFTC-905 (bladder, adherent, top dose 4 µM)
The IC50 of the first is 2.8-fold higher: 2920 nM for the first, 1030 nM for the second.

Going from “BHT-101 (thyroid, adherent, top dose 4 µM)” to “BHY (head and neck, adherent, top dose 2 µM)”, the IC50 rises from 511 nM to 1920 nM (3.8-fold).
